Out of some 94,000 compounds screened, about 6,200 (6.6%) were called active. The shares of active, inactive and inconclusive entries below differ from those in the screen. The call rests on the fitted dose curve; in most records, active means well fitted inhibition curve with a large enough effect; inconclusive means small, poorly fitted or top-dose-only effect; inactive means flat fitted curve, though single readings scatter. Potencies beside an inconclusive call are fits to weak or partial responses and may not hold up.
Assay: Cytotoxic Profiling in HEK 293 Cell Line of Diverse Libraries Using Quantitative High-Throughput Screening; further: nearly all actives have a fitted effect of over 60% in size
Details: HEK 293 viability, ATP luminescence (CellTiter-Glo), 48-72 h; activity change, negative = cytotoxicity: at 115 µM (top of the series) unless noted; series mostly up to 115 µM
In short: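 Pintool-delivered compounds were incubated with HEK 293 cells (250 cells/well) at 37 degree Celsius for 48 or 72 hr. ATP-dependent luminescence (CellTiter-Glo) then reported remaining viable cells.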
On the % scale 0 is the no-effect control and ±100 the full control effect; potency means the concentration at half of the fitted maximal effect; tags describe the fitted curve by direction and shape.

| SMILES | activity change, negative = cytotoxicity | Potency | outcome |
| --- | --- | --- | --- |
| COc1ccc(-c2ccccc2C(=O)NC2CCCCC2)nn1 | inactive: -0.122% [at 172 µM] | – | – |
| CCNC(=O)CN1CCN(c2nccc(C3CCCC3)n2)CC1 | inactive: -8.81% | – | – |
| COc1ccc(NC(=O)Cn2c(-c3ccccc3)nc(C)c(CCO)c2=O)cc1OC | – | inconclusive: 89.1 µM [inhibitor, single point] | – |
| CC1CCC2(CC1)OCC(C(=O)NCc1ccc3c(c1)OCO3)N2C(=O)c1ccccc1F (centres undefined) | – | inconclusive: 28.2 µM [inhibitor, full curve, poor fit] | – |
| O=C(O)C1CCc2nnc(C3CCCN(C(=O)c4ccc5c(c4)OCO5)C3)n21 (centres undefined) | inactive: 4.57% | – | – |
| CN1Cc2ccc(NCc3ccccc3)nc2C(C)(C(=O)NCc2ccccc2)C1 (centres undefined) | – | inconclusive: 100 µM [inhibitor, partial curve, poor fit] | – |
| COc1ccc(-c2ccc(C(=O)N3CCN(C(=O)N4CCOCC4)CC3)cc2)nn1 | inactive: -2.15% | – | – |
| Cc1ccc(-c2cc3c(ccn3C)c(C(=O)NCc3cccnc3)n2)cn1 | – | inconclusive: 126 µM [inhibitor, single point] | – |
| CN(Cc1ccc(-c2ccccc2)cc1)C(=O)Cc1cccc(Cl)c1 | – | active: 63.1 µM | – |
| COc1ccc(C(=O)N2C[C@@H](Oc3cccnc3)C[C@H]2C(=O)N2CCCC2)cn1 | inactive: 0.562% | – | – |
| CCOc1ccc(NC(=O)c2ccc3c(c2)N(C)C2CCCN2C3=O)cc1 (centres undefined) | inactive: -4.25% | – | – |
| COc1cccc(C(=O)NC2CCN(c3cc(C(F)(F)F)nc(C)n3)CC2)c1 | – | inconclusive: 79.4 µM [inhibitor, single point] | – |
| COc1ccc(NC(=O)Cn2c(N3CCN(c4ccccc4)CC3)nc(C)cc2=O)cc1Cl | – | inconclusive: 56.2 µM [inhibitor, partial curve, poor fit] | – |
| CC(=O)c1cc(CN2CCCC(C(=O)c3cccc(OC(C)C)c3)C2)cs1 (centres undefined) | – | inconclusive: 50.1 µM [inhibitor, partial curve, poor fit] | – |
| COc1cccc(CNC(=O)Cn2nc3n(c2=O)CCCC3)c1 | inactive: -1.26% | – | – |
| O=C(NC1CCN(c2cc(-c3cccs3)[nH]n2)C1)c1ccncc1 (centres undefined) | – | inconclusive: 79.4 µM [inhibitor, single point] | – |
| COc1ccc(-c2nnc3n2CCN([S+](C)(=O)[O-])C3)cc1 | inactive: -14.1% [at 172 µM] | – | – |
| COc1ccc(Cl)cc1C(=O)N1CCC[C@H]1c1nc(-c2ccc(C)cc2)no1 | – | inconclusive: 50.1 µM [inhibitor, partial curve, poor fit] | – |
| O=C(Nc1ccccc1)C1=NO[C@@H]2CN(Cc3ccc(O)c(Cl)c3)C[C@H]12 | – | inconclusive: 100 µM [inhibitor, partial curve, poor fit] | – |
| COCCc1noc(-c2nc(-c3ccc4c(c3)OCO4)no2)n1 | – | inconclusive: 79.4 µM [inhibitor, single point] | – |
| O=C1[C@@H]2C[C@@H](O)CN2C2(CN(Cc3ccc(OC(F)(F)F)cc3)C2)C(=O)N1Cc1ccccc1Cl | – | inconclusive: 89.1 µM [inhibitor, single point] | – |
| CCCN(CC1CCOC1)S(=O)(=O)c1ccc(Cl)cc1C (centres undefined) | – | inconclusive: 89.1 µM [inhibitor, single point] | – |

| SMILES | activity change, negative = cytotoxicity | Potency | outcome |
| --- | --- | --- | --- |
| CN(C)c1cccc(-c2cnc3[nH]cc(CC(=O)NCc4cccnc4)c3c2)c1 | – | inconclusive: 112 µM [inhibitor, single point] | – |
| COc1ccc(-c2cc(C(=O)NC3CC3)c3c(C4CCNC4)nn(C)c3n2)cc1 (centres undefined) | – | inconclusive: 89.1 µM [inhibitor, single point] | – |
| Cc1ccccc1C(=O)N1CCCC(N2C(=O)c3c(c(C)nn3-c3ccccc3)C2C2CC2)C1 (centres undefined) | – | inconclusive: 50.1 µM [inhibitor, partial curve, poor fit] | – |
| Cc1cc(-c2cc3c(cn2)CN(CC2CCOCC2)CCN3)ccn1 | – | inconclusive: 100 µM [inhibitor, partial curve, poor fit] | – |
| COCc1cc(CNC(=O)C2(Oc3ccc(Cl)cc3)CCNCC2)[nH]n1 | inactive: 4.71% | – | – |
| CC1(CCCCN2CCOCC2)COc2ccc(C(=O)Nc3cccnc3)cc2N1 (centres undefined) | – | inconclusive: 100 µM [inhibitor, partial curve, poor fit] | – |
| Cc1cc(NC(=O)N2CCC(Oc3ncccc3C(=O)N(C)C)C2)ccc1Br (centres undefined) | – | inconclusive: 31.6 µM [inhibitor, full curve, poor fit] | – |
| Cc1oc(-c2ccccc2)nc1CN1CCCC(C(=O)NCCc2noc(-c3ccccc3)n2)C1 (centres undefined) | – | inconclusive: 8.91 µM [inhibitor, full curve, poor fit] | – |
| Fc1ccc(CN2CCOC[C@H]2c2ncc(-c3ccc(F)cc3F)[nH]2)cc1 | – | active: 79.4 µM | – |
| Cc1ccc(CN2CCc3nc(N4CCN(C)CC4)[nH]c(=O)c3CC2)c(C)c1 | inactive: -9.18% | – | – |
| CCc1cccc(NC(=O)c2cc3n(n2)CC(c2ccc4c(c2)OCO4)OC3)c1 (centres undefined) | – | inconclusive: 79.4 µM [inhibitor, partial curve] | – |
| O=C(NC[C@H]1O[C@@H](CO)[C@@H](O)[C@H]1N1CCN(c2cccc(C(F)(F)F)c2)CC1)Nc1ccc(F)cc1F | – | inconclusive: 79.4 µM [inhibitor, partial curve, poor fit] | – |
| CN(C(=O)c1cc(-c2ccccc2F)nc2c1cnn2C)c1ccccc1 | – | inconclusive: 56.2 µM [inhibitor, partial curve, poor fit] | – |
| Cc1ccc([C@@H]2CN(C(=O)c3sccc3Cl)C[C@H]2N(C)C)cc1 | – | inconclusive: 89.1 µM [inhibitor, single point] | – |
| C#CCNC(=O)CNC(=O)c1cccc(-c2cc(F)ccc2OC)c1 | – | inconclusive: 79.4 µM [inhibitor, partial curve] | – |
| COc1ccc(CCNC(=O)c2ccc(N3CC4CC(C3)[C@H]3CCCC(=O)N3C4)nc2)cc1OC (some centres undefined) | inactive: -21.6% | – | – |
| Cc1cnc(C(=O)N[C@@H]2CCC[C@@H]2C(=O)NCC2CCCCC2)cn1 | inactive: -22.1% | – | – |
| Cc1ccsc1C(=O)N1CC2CC(C1)[C@H]1CCCC(=O)N1C2 (some centres undefined) | inactive: 9.47% | – | – |
| Cc1nc(-c2cccc(Cl)c2)n(Cc2nc(-c3ccccc3)oc2C)c(=O)c1CCO | – | – | inactive |
| COC[C@]1(O)CCN(C(=O)c2oc(COc3ccccc3)cc2C)CC1(C)C | – | inconclusive: 79.4 µM [inhibitor, partial curve, poor fit] | – |
| O=C(NCCc1ccc(F)cc1)c1cc(-c2cccc(C(F)(F)F)c2)c2nncn2n1 | – | inconclusive: 50.1 µM [inhibitor, partial curve, poor fit] | – |
| CC(=O)Oc1c(-c2ccc(NC(=O)c3ccccc3)cc2)c(-c2cccc(F)c2)nn1-c1ccccc1 | inactive: -18.5% | – | – |

| SMILES | activity change, negative = cytotoxicity | Potency | outcome |
| --- | --- | --- | --- |
| Cc1ccc(CNC(=O)N2CCCC(CN3CCCC3)CC2)cc1 (centres undefined) | inactive: -14.3% | – | – |
| COCCN1CCCN(C(=O)C2CC2)c2ccccc21 | – | inconclusive: 79.4 µM [inhibitor, partial curve, poor fit] | – |
| O=C1CC(c2noc(-c3ccc(OC(F)(F)F)cc3)n2)CN1c1ccc(F)cc1 (centres undefined) | – | inconclusive: 70.8 µM [inhibitor, partial curve, poor fit] | – |
| O=C(NC1CCN(c2cc(-c3ccc(F)cc3)[nH]n2)C1)c1ccc(F)cc1Cl (centres undefined) | – | inconclusive: 44.7 µM [inhibitor, partial curve, poor fit] | – |
| Cc1c(Cl)cccc1NC(=O)CCn1ccn2nc3c(c2c1=O)CCCC3 | – | inconclusive: 79.4 µM [inhibitor, single point] | – |
| CC(C)N1CCN(C2CCN(c3ccc4c(c3)OCO4)CC2)CC1CCO (centres undefined) | inactive: -10.9% | – | – |
| CN1CCCCCC(O)c2cc(C(=O)NCCCc3ccccc3)ccc21 (centres undefined) | – | inconclusive: 89.1 µM [inhibitor, single point] | – |
| COc1ccc(Cl)cc1C(=O)N1CCC2(CC1)NC(=O)N(c1cccc(F)c1)N2 | – | inconclusive: 17.8 µM [inhibitor, full curve] | – |
| O=C1c2cnc(-c3ccc(F)cc3)nc2OCCN1Cc1ccc(F)cc1F | – | inconclusive: 100 µM [inhibitor, partial curve, poor fit] | – |
| COc1ccc(-c2cc(C(=O)NCC(C)C)c3c(C4CCCN4)noc3n2)cc1 (centres undefined) | – | inconclusive: 89.1 µM [inhibitor, partial curve, poor fit] | – |
| CC(C)c1nc2c(c(-c3ccc(Cl)cc3)n1)CCN(C(=O)c1ccc3c(c1)OCO3)CC2 | – | inconclusive: 79.4 µM [inhibitor, partial curve, poor fit] | – |
| Cc1ccc2c(n1)N(C)[C@H](CO)CCN(CC1CCCCC1)C2 | – | active: 44.7 µM | – |
| O=C(NC1CCN(Cc2ccc(-c3ccsc3)cc2)C1)c1cccnc1 (centres undefined) | – | inconclusive: 44.7 µM [inhibitor, partial curve, poor fit] | – |
| COc1ccc(-c2noc(-c3ncn4c3COC(c3ccc(F)cc3)C4)n2)cc1OC (centres undefined) | – | inconclusive: 31.6 µM [inhibitor, full curve, poor fit] | – |
| COc1ccc(C(=O)N(C)C2CCc3nnc(C)n3CC2)cc1F (centres undefined) | inactive: -6.22% | – | – |
| COC(=O)N1CCC2(CC1)CC(c1cccc(C(F)(F)F)c1)=NO2 | – | inconclusive: 50.1 µM [inhibitor, partial curve, poor fit] | – |
| CCOC(=O)C1=CN(CC(=O)Nc2cccc(C)c2C)S(=O)(=O)N=C1C | – | inconclusive: 89.1 µM [inhibitor, single point] | – |
| O=C(NCCNC(=O)c1ccc(-c2cncnc2)cc1)c1ccc(F)cc1 | inactive: -4.04% | – | – |
| O=C(Cc1ccc2c(c1)OCCCO2)NC1CCCc2c1[nH]c1ccccc21 (centres undefined) | – | inconclusive: 56.2 µM [inhibitor, partial curve, poor fit] | – |
| FC(F)(F)c1cc(Nc2cnc3ccc(N4CCOCC4)nn23)ccc1Cl | – | active: 79.4 µM | – |
